# ± gives the standard deviation of the averaged measurements. The list shows a part of the results.
# System: PfAP2-LT AP2 domain (GST-tagged)
# Assay: gcPBM binding intensity (ln(normalized median fluorescence intensity)); higher = stronger DNA binding
# Summary of the method: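 An Agilent 4 × 180k array of primer-extended double-stranded 36-bp intergenic genomic probes, with negative controls, was incubated for 1 h with GST-tagged P. falciparum DNA-binding domains expressed in E. coli. Alexa488 anti-GST antibody detected bound protein, scanned at 488 nm. Binding intensity is the highest Masliner-normalised natural-log median intensity across replicate spots of either probe orientation.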
row,Sequence,gcPBM binding intensity (ln)
1,ATTATTTTTTTATGTTGTACATAATATTTTTTAAAA [XGTACX_site1666],8.54 ± 0.45
2,ATATATATGGATGGACGTACGTATGTATGTAATTTC [XGTACX_site4135],9.26 ± 0.36
3,TAATATTTATAAAATAGTACACAGAAAAAGCATTTT [XGTACX_site8948],8.62 ± 0.52
4,CTTAAAAATAACTGCACACAAAAATAAATACCTTAT [CACACA_site2793],9.12 ± 0.3
5,TTCCAACATTGTTTTTGTACATAATTAACTGTTATT [XGTACX_site5224],8.96 ± 0.39
6,TAGGAAAAGAAAAGCACACACATAAATAGATATATA [CACACA_site6382],9.43 ± 0.54
7,ATATATATATATATATATATAATTTTTTTTGTTTTT [TGCATGCA_negctrl_site453],9.91 ± 0.42
8,GATATCAAAAAGATGGGTACATATATTTAAGTTCAT [XGTACX_site3822],8.76 ± 0.49
9,TATATTATTAATTAGGGTACAAAAAAAAAATTTTTT [XGTACX_site7762],8.3 ± 0.48
10,TTTTGAAAAAGTTGCACACAAAATTTAAAAAAAAAA [CACACA_site1632],8.72 ± 0.5
11,TTAAATAGAAATAAGACTAACAATGAACCAAAAAAA [CACACA_negctrl_site991],8.79 ± 0.5
12,CTTAAAAAAACCTTAACACACATAAACTATAATTTA [CACACA_site3055],8.65 ± 0.4
13,TTTTCATTTGAAAGTCGTACAAGTTCGAAAAAAGGA [XGTACX_site6840],8.79 ± 0.47
14,ATATTATATATATGTGCACACAAAAGATATATATAT [CACACA_site2125],9.91 ± 0.27
15,ATAAGCAATAAAAAAACATGCATATTATTATCAACA [TGCATGCA_site1027],8.85 ± 0.45
16,TGCAACAAAATAAACACACACACACTAACACAAAAA [CACACA_site7567],9.98 ± 0.33
17,TTTAAAAATAAAAGTACACACATAAACATATTGCAC [CACACA_site6784],9 ± 0.33
18,ATCAAGCACGGACACACACACACACCCAGACCCCCA [CACACA_site4360],10.19 ± 0.099
19,AAGTTAACACAACAGGTGCAAGAAAAGTTTTTAATG,8.77 ± 0.45
20,TATGGTATATACAACACACACACATATGTATATATA [CACACA_site927],9.62 ± 0.44
21,TCTTTAATATATAGTGCATGTAAATTTTACAATAAT [TGCATGCA_site242],8.52 ± 0.36
22,AGTTAATGTTTATGTACACACGGTGGGTATATATTT [CACACA_site5785],9.18 ± 0.35
23,TATACATTTATGTACACACACATATAGGTATATTTA [CACACA_site7408],9.09 ± 0.33

row,Sequence,gcPBM binding intensity (ln)
1,AAAATATAATATATTACACACATATATTTTATAAGT [CACACA_site668],8.96 ± 0.39
2,TATATACATTTATATACACACCTATATTTATTTATA [CACACA_site7014],8.82 ± 0.49
3,ATTATATATATTTATGCACACAAAATATATTATATA [CACACA_site9244],8.78 ± 0.32
4,TTTTTTTAACGGTGTGCACACAATATACAGAAAAAA [CACACA_site1415],9.23 ± 0.48
5,TATATTGAAAATAAAACATGCAATCACTCATACATA [TGCATGCA_site248],8.76 ± 0.28
6,CAACAATTTCGTCATACACACATTCAGAATCTATAT [CACACA_site7171],8.97 ± 0.42
7,ATGTACCTATTTCATACACACACACCCACAAACAAA [CACACA_site8232],9.66 ± 0.16
8,CAAAAAAGTAAAACGTGTACATATATACATAAAAAT [XGTACX_site5639],9.22 ± 0.43
9,TACGTAATAATATGCACACAAATAAACTTTATAAAT [CACACA_site3501],9.11 ± 0.42
10,TTTAAACGTTATATAGTGCATGTCATATTTTATTAT,8.85 ± 0.42
11,CTTTTTTATATCTCTACACACATTTATAACAATTTG [CACACA_site1398],9.03 ± 0.46
12,TATGTTGGTTCTTTTAGTACATAATTACTAAATGTA [XGTACX_site8616],8.71 ± 0.42
13,CAAACTACAAAATTTCGTACGCATATATTTCAAGTA [XGTACX_site5154],8.74 ± 0.43
14,AAAACATACATATATACACACATATATATATATATA [CACACA_site1852],9.97 ± 0.53
15,TATAAAAAATAAAATACACACACATATATATATATA [CACACA_site8365],9.74 ± 0.28
16,TAATTTCTTATGTGCTATCTTATATAGAATTAATTT [CACACA_negctrl_site1726],8.53 ± 0.51
17,TGCACAAAATTATGCACACACCTAAAATTAATTTTT [CACACA_site5596],9.06 ± 0.34
18,GGCAATGATTTTAGGTGTACTTAAAAATCAAATTAA [XGTACX_site8587],8.47 ± 0.53
19,ATTCTAATCATATACACACCCATATATATATATATA [CACACA_site1774],9.87 ± 0.29
20,TATATATTAATATGCACACACAAGAAGTAATTATAA [CACACA_site3193],9.34 ± 0.37
21,ATTATATAACAAAATAGTACATATATTTATTACATC [XGTACX_site336],8.57 ± 0.4
22,AAAAAAAAAATTTAGGTGCATACAAATAAATTATAT [GTGCAC_site9521],8.65 ± 0.59
23,AGCAGTCAGCAGGACAGTACACAGTAGCCAGGAAAT [XGTACX_site4877],9.28 ± 0.52

row,Sequence,gcPBM binding intensity (ln)
1,TTATTCTAAAAAGGGTGTACACAAACGAATGGAAAA [XGTACX_site5662],8.99 ± 0.38
2,ATGGCTAAAAGTTGCACACACACAAAAAAAAAAAAA [CACACA_site3289],9.52 ± 0.49
3,AAAATTATTTAGTAAGTGCAAAAAAAAAAAAAAAAA,8.53 ± 0.66
4,AATTTGATTATAAATTGTACATATATATATTAAAAG [XGTACX_site5461],8.66 ± 0.35
5,ATTGTTAAATATAATACACACGTTTTTAAAAATATA [CACACA_site5239],8.72 ± 0.42
6,TAAAAATAAATAAATACATGCACCAAAAATAAATTT [TGCATGCA_site801],8.9 ± 0.42
7,ATTGCCATTGTTAATGCATGTAACAATTCAGCTCAT [TGCATGCA_site56],8.8 ± 0.43
8,TAATTGTACACATGCACACACAAATATTATAGATGT [CACACA_site6528],9.47 ± 0.34
9,TGTATAACATTTAGGTGTACAATTATATATAATATA [XGTACX_site8131],8.57 ± 0.4
10,TTGAGAAAAATTAATGGTACACATATTATAAGTATA [XGTACX_site6539],8.74 ± 0.45
11,TGACATATTATTAGGTGGTCACGTCTCCACGTCAAG [XGTACX_site7943],8.69 ± 0.48
12,AAGAAAAAAAAAAAAACACACATATATTTATTTATA [CACACA_site7042],8.49 ± 0.54
13,TATACACATAGACACACACACAAAAAAAAAAAAAAA [CACACA_site6338],9.68 ± 0.59
14,GAAAGAAAAAATGATGAATAGAGATCAAATCTATAT [XGTACX_negctrl_site28],8.66 ± 0.52
15,TAAAAATTTGATCAAACACACGTTGCATAAATTATA [CACACA_site6040],8.77 ± 0.34
16,AGGCTATAATACCATACACACATTTATAAAATAACA [CACACA_site6990],9.07 ± 0.42
17,ACATATATTTATATATGTACATATGATATATACATA [XGTACX_site6122],8.71 ± 0.36
18,CTTTTGTATATTATATGTACACACAATAAGTTAATA [XGTACX_site1684],8.84 ± 0.38
19,TTTTTGTAAACCTACTTCATAATTATTTATATCTAT [XGTACX_negctrl_site599],8.64 ± 0.56
20,TTAAAAAACATTTGAACATGCAATTGTATATGTAGA [TGCATGCA_site334],8.63 ± 0.45
21,TGAAATTAAATATATACACACATATATATTTATATG [CACACA_site3516],8.78 ± 0.4
22,AAACAAAAGGAAAACATATATATATTAAATGTATAT [CACACA_negctrl_site1663],8.86 ± 0.5
23,ATTTAGAATGTTCCTACACACCAAATTTAAGGGTGC [CACACA_site5320],8.94 ± 0.49

row,Sequence,gcPBM binding intensity (ln)
1,ATTACAAATTCTTTCAGTACATATAAAGAAAAAAAT [XGTACX_site7786],8.62 ± 0.42
2,TTTTTTTTTCTCCATACACACTTGATAAAACTTTTT [CACACA_site4512],8.54 ± 0.55
3,ATTTATATTCCAATATGTACATATTTTCGTATAACC [XGTACX_site8507],9.06 ± 0.47
4,GCAAAATAACAATGTTACACTTATAAAATTGAGGCA [GTGCAC_negctrl_site68],8.81 ± 0.49
5,ATTGTTACATAAAATGCACACTTTCAAATATGCTAA [CACACA_site5600],8.72 ± 0.37
6,ATATATACCTATATTACACACTTCTTATTCTAAGAA [CACACA_site7421],8.75 ± 0.45
7,AGGGTTCATATATTAACACACACATACATATTATAT [CACACA_site8959],9.31 ± 0.39
8,AGTATTCTAATTTTTAAACACACAAATATAAATAAG [CACACA_site9029],8.56 ± 0.46
9,TATACACATATATATAGTACATATATAATTTACTAT [XGTACX_site1849],8.86 ± 0.38
10,TATTTATTAAGACACACACACACACGCACAAAATAA [CACACA_site6254],10.3 ± 0.33
11,TTCATATATAATTGTACACACAAAAACGACATTGTG [CACACA_site2074],8.96 ± 0.4
12,TAAATATGAGGGAACACACACATGATATATAAATTC [CACACA_site2400],9.34 ± 0.37
13,GGAAATAAAATTAAATGTACGAAAACTCATTAAATT [XGTACX_site4274],8.62 ± 0.57
14,AAACGGGAGAAATAAAAATAAAAATAATAAAACAAA [XGTACX_negctrl_site586],8.81 ± 0.79
15,TATACTCATGGACACACACACATACACAGACATACA [CACACA_site5024],9.82 ± 0.3
16,AAATATCAACTCAAATGTACAAATCACAAAAATGTA [XGTACX_site5344],8.81 ± 0.43
17,ATATATGATGTATTTGTGCACATATATATATTATTA [GTGCAC_site9471],8.88 ± 0.36
18,TAAATAAAAAGACACACACACATATTTATATTTATA [CACACA_site7135],9.7 ± 0.19
19,ATATTAAAAAGGAAATGTACGTAATGAAGATCAAGT [XGTACX_site3138],9.22 ± 0.38
20,TAAATTGGTGCAAAGTGTACATATATATCTTTCCTA [XGTACX_site5458],8.72 ± 0.46

# — the supplement of paper PMC11417369
